Measurements as given in the RNAGym collection of RNA variant scans (doi:10.1073/pnas.2313332121).
This sample is rich in variants without activity.

B1: TPR 5TU (parent)
chain: GGAUCUUCUCGAUCUAACAAAAAAGACAAAUCUGCCACAAAGCUUGAGAGCAUCUUCGGAUGCAGAGGCGGCAGCCUUCGGUGGCGCGAUAGCGCCAACGUUCUCAACUAUGACACGCAAAACGCGUGCUCCGUUGAAUGGAGUUUAUCAUG

Variants of: B1
Assay: polymerase ribozyme fitness, log enrichment relative to wild type (log ratio); higher = more active; in vitro selection for triplet polymerase activity
Method in brief: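 After PCR construction and transcription, each subunit's mutant library from a heterodimeric triplet polymerase ribozyme was annealed with a biotinylated primer, the partner subunit and triplets. Incubation was frozen, at −7 °C, and extended constructs were gel-excised, bound to streptavidin beads and amplified by RT-PCR, in one selection round done in triplicate. Fitness is the logarithm of a genotype's enrichment divided by that of the wild type, from inverse-variance-weighted replicate averages of Illumina-sequenced inputs and outputs. The base of the logarithm is 2, and genotypes needed ≥10 input reads and ≥1 read per output.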

Variant	polymerase ribozyme fitness (log ratio)
GGAUCUUCUCGAUCUAACAAAAAAGACAAAUCUGCCACAAAGCUUGAGAGCAUUUUCGGAUGCAGAGGCGGCAGCCUUCGGUGGCGCGAUAGGGCCAACGUUCUCAACUAUGACACGCAAAACGCGUGCUCCGUUGAAUGGAGUUUAUCAUG	-3.72
GGAUCUUCUCGAUCUAACAAAAAAGACAAAUCUGCCACAAAGCUUGAGAGCAUUUUCGGAUGCAGAGGCGGCAGCCUUCGGUGGCGCGAUAGGGCCAACGUUCUCAACUAUGACGCGCAAAACGCGUGAUGCGUUGAAUGGAGUUUAUCAUG	≤ -4.2
GGAUCUUCUCGAUCUAACAAAAAAGACAAAUCUGCCACAAAGCUUGAGAGCAUUUUCGGAUGCAGAGGCGGCAGCCUUCGGUGGCGCGAUAGGGCAAACGUUCUCAACUAUGACAAGCAAAACGCGUGCUCCGUUGAAAGGAGUUUAUCAUG	≤ -4.2
GGAUCUUCUCGAUCUAACAAAAAAGACAAAUCUGCCACAAAGCUUGAGAGCAUUUUCGGAUGCAGAGGCGGCAGCCUUCGGUGGCGCGAUAGGGCCAACGUUCUCAACUAUGACACGCAAAACGCGUGCUCCGUUGAAUGGAGUAUAUCAUG	≤ -4.2
GGAUCUUCUCGAUCUAACAAAAAAGACAAAUCUGCCACAAAGCUUGAGAGCAUUUUCGGAUGCAGAGGCGGCAGCCUUCGGUGGCGCGAUAGUGCCAACGUUCUCAACUAUGACACGCAAAACGCGUGCUCCGUUGAAUGGAGCUGAUCAUG	-3.87
GGAUCUUCUCGAUCUAACAAAAAAGACAAAUCUGCCACAAAGCUUGAGAGCAUUUUCGGAUGCAGAGGCGGCAGCCUUCGGUGGCGCGAUAGCGCCAACGUUCUCAACUAUGACACGCAAAACGGGUGCUCCGUUGAAUGGAGUUUAUCAUG	-1.05
GGAUCUUCUCGAUCUAACAAAAAAGACAAAUCUGCCACAAAGCUUGAGAGCAUUUUCAGAUGCAGAGGCGGCAGCCUUCGGUGGCGCGAUAACGCCAACGUUCUCAACUAUGACACGCAAAACGCGUGCUCCGUUGAAUGGAGUAUAUCAUG	-3.35
GGAUCUUCUCGAUCUAACAAAAAAGACAAAUCUGCCACAAAGCUUGAGAGCAUUUUCCGAUGCGGAGGCGGCAGCCUUCGGUCGCGCGAUAGCGCCUACGUUCUCAACUAUGACAAGCAAAGCGCGUGCUCCGUUGAAUGGAGUUUAUCAUG	≤ -4.2
GGAUCUUCUCGAUCUAACAAAAAAGACAAAUCUGCCACAAAGCUUGAGAGCAUUUUCCGAUGCAGAGGCGGCAGCCUUCGGUGGAGCGAUAGCGCCAACGUUCUCAACUAUGACACGCAAAACGCGUGCUCCGUUGAAUGGAGUUUAUCAUG	-2.42
GGAUCUUCUCGAUCUAACAAAAAAGACAAAUCUGCCACAAAGCUUGAGAGCAUUUUCGAAUGCAGAGGCGGCAGCCUUUGGUGGAGCGAUAGCGCCAACGUUUUCAACUAUGACACGCAAAACGCGUGCUCCGUUGAAUGAAGUUUAUCAUG	≤ -4.2
GGAUCUUCUCGAUCUAACAAAAAAGACAAAUCUGCCACAAAGCUUGAGAGCAUUUUCGGAUACAGAAGCGGCAGCCUUCGGUGGCGCGAUAGCGCCAACGUUCUCAACUAUGACACGCAAAACGCGUGCUCCGUUGAAUGGCGUUUAUCAUG	≤ -4.2
GGAUCUUCUCGAUCUAACAAAAAAGACAAAUCUGCCACAAAGCUUGAGAGCAUUUUCGGAUGCAGACGCGGCAGCCUUCGGUGGCGUGAUAGCGCCAACGUUCUCAACUAUGACACGCAAAACGCGAGCUCCGUUGAAUGGAGUUUACCAUG	≤ -4.2
GGAUCUUCUCGAUCUAACAAAAAAGACAAAUCUGCCACAAAGCUUGAGAGCAUUUUCGGAUGCAGAUGCGGCAGCCUUUGGUGGCGCGAUAUCGCCAACGUUCUCAACUAUGACACGCAAAACGCGUUCUCCGUUGAAUGGAGUUUAUCAUG	≤ -4.2
GGAUCUUCUCGAUCUAACAAAAAAGACAAAUCUGCCACAAAGCUUGAGAGCAUUUUCGGAUGCAGAGACGGCAGCCUUCGGUGGCGCGAUGGCGCCAACGUUCUCAAGUAUGACAGGGAAAACGCGUGCUCCGUUCAAGGGAGUUUAUCAUG	≤ -4.2
GGAUCUUCUCGAUCUAACAAAAAAGACAAAUCUGCCACAAAGCUUGAGAGCAUUUUCGGAUGCAGAGCGGUCAGCCUUCGGUGGCGCGAUAGCGCCAACGUUCUCAACUAUGACACGCAAAACGCGUGCUCCGUUGAAUAGAGGUUAUCAUG	≤ -4.2
GGAUCUUCUCGAUCUAACAAAAAAGACAAAUCUGCCACAAAGCUUGAGAGCAUUUUCGGAUGCAGAGUCGACAGCCUUCGGUGGCGCGAUAGCGCCAACGUUAUGAACUAUGACACGCAAAACGCGUGCUCCGUUGAAUCGAGUUUAUCAUG	≤ -4.2
GGAUCUUCUCGAUCUAACAAAAAAGACAAAUCUGCCACAAAGCUUGAGAGCAUUUUCGGAUGCAGAGGCGGCAACCUUCGGUGGCGCGAUAGCGCCAACGUUCUCAACUAUGAUACGCAAAAGGCGUGCUCCGUUGAAUGGAGUUUAUCAUG	≤ -4.2
GGAUCUUCUCGAUCUAACAAAAAAGACAAAUCUGCCACAAAGCUUGAGAGCAUUUUCGGAUGCAGAGGCGGCACCCUUCGGUGGCGCGAUAGCGCCAACGUUCUCAACUAUGACACGCAAAACGCGUGCUCCGUUGAAUGGAGUUUAUCAUG	-3.95
GGAUCUUCUCGAUCUAACAAAAAAGACAAAUCUGCCACAAAGCUUGAGAGCAUUUUCGGAUGCAGAGGCGGCAGCCUUCAGUGGCGCGAUAGCGCCAACGUUCUCAACUAUGACACGCAAAACGCGUGCUCCGUUGAAUGGAGUUUAUCAUG	-0.56

Variant	polymerase ribozyme fitness (log ratio)
GGAUCUUCUCGAUCUAACAAAAAAGACAAAUCUGCCACAAAGCUUGAGAGCAUUUUCGGAUGCAGAGGCGGCAGCCUUCGGUAGCGCGAUAGGGCCAACGUUUUCAACUAUGACACGCAAAAAGCGUGCUCCGUUGAAUAGAGUUUAUCAUG	≤ -4.2
GGAUCUUCUCGAUCUAACAAAAAAGACAAAUCUGCCACAAAGCUUGAGAGCAUUUUCGGAUGCAGAGGCGGCAGCCUUCGGUAGCGCGAUAGCGCCAACGUUGUCAACUAUGACACGCAAAACGCGUGCUCCGUUGAUUGGAGUUUAUCAUG	≤ -4.2
GGAUCUUCUCGAUCUAACAAAAAAGACAAAUCUGCCACAAAGCUUGAGAGCAUUUUCGGAUGCAGAGGCGGCAGCCUUCGGUGACGCGAUAGCGCCAACGUUCUCGAAUAUGACACGCAAAACGCGUGCUCCGUUGAAUGGAGUUUAUCAUG	≤ -4.2
GGAUCUUCUCGAUCUAACAAAAAAGACAAAUCUGCCACAAAGCUUGAGAGCAUUUUCGGAUGCAGAGGCGGCAGCCUUCGGUGACGCGAUAGCGCCAACGUUCGCAUCUAUGACACGCAAAACGCGUGCUCCGUUGAAUGGACUUUAUCAUG	≤ -4.2
GGAUCUUCUCGAUCUAACAAAAAAGACAAAUCUGCCACAAAGCUUGAGAGCAUUUUCGGAUGCAGAGGCGGCAGCCUUCGGUGCCGCGAUAGUGCCAACGUUCUCAACUAUGACACGCAAAACGCGUGCUCCGUUGAAUGGAGCUUAUCAUG	≤ -4.2
GGAUCUUCUCGAUCUAACAAAAAAGACAAAUCUGCCACAAAGCUUGAGAGCAUUUUCGGAUGCAGAGGCGGCAGCCUUCGGUGGCACGAUAGCGCCAACGUUCUCAACUAUGACACGCAAAACGCGUGCUCCGUUGAAUGGAGUUUAUCAUG	-1.18
GGAUCUUCUCGAUCUAACAAAAAAGACAAAUCUGCCACAAAGCUUGAGAGCAUUUUCGGAUGCAGAGGCGGCAGCCUUCGGUGGCGCCAUAGCGCCAACGUUCUCAACUAUGACACGCAAAACGCGUGCUCCGUUGAAUGGAGUUUAUCAUG	≤ -4.2
GGAUCUUCUCGAUCUAACAAAAAAGACAAAUCUGCCACAAAGCUUGAGAGCAUUUUCGGAUGCAGAGGCGGCAGCCUUCGGUGGCGCGAUAGCCCCAACGUUCUCAACUAUGACACGCAAAACACGUGCUCCGUUGAAUGGAGUUUAUCAUG	-1.04
GGAUCUUCUCGAUCUAACAAAAAAGACAAAUCUGCCACAAAGCUUGAGAGCAUUAUCGGAUGCAGAGGCGGCAGCAUUCGGUGGCGCGAUUGCGACAACGUUAUCAACUAUGACACGCAAAACGCGUGCUGCGUUGAUUGGAGUUUAUCAUG	≤ -4.2
GGAUCUUCUCGAUCUAACAAAAAAGACAAAUCUGCCACAAAGCUUGAGAGCAUUAUCGGAUGCAGAGGCGGCAGCCUUCGGUGGGGCGAUAGCGCCAACGUUCUCAACUAUGACACGCAAAACGCGUGCUCCGUUGAAUGGAGUUUAUAAUG	≤ -4.2
GGAUCUUCUCGAUCUAACAAAAAAGACAAAUCUGCCACAAAGCUUGAGAGCAUUAUCGGAUGCAGAGGCGGCAGCCUUCGGUGGCGCGAUAGCGGAAACGUUCUCAACUAUGACACGCAAAACGCGUGCUCCGUUGAAUGGAGUUUAUCAUG	-3.07
GGAUCUUCUCGAUCUAACAAAAAAGACAAAUCUGCCACAAAGCUUGAGAGCAUUGUCAGAUGCUGAGGCGGCAGCCUUCGGUGGCGCAAUAGCGGCAACGUUCUCAACUAUGACACGCAAAACGCGAGCUCCGUUGAAUGGAGUUUAUCAUG	≤ -4.2
GGAUCUUCUCGAUCUAACAAAAAAGACAAAUCUGCCACAAAGCUUGAGAGCAUUUACGGAUGCAGAGGCGGCAGCCUUUGGCGGCGCGAUAGCGCCAACGUUCUCAACUAUGAUACGCAAAACGCGAGCUCCGUUGAAUGGAGUUUAUCAUG	≤ -4.2
GGAUCUUCUCGAUCUAACAAAAAAGACAAAUCUGCCACAAAGCUUGAGAGCAUUUACGGAUGCAGAGGCGGCAGCCUUCAGUUGCGCGAUAGCGCAAACGUUCUGAACUAUGACAGGCAAAACGCGUGCUCCGUUGAAUGGAGUUUAUCAUG	≤ -4.2
GGAUCUUCUCGAUCUAACAAAAAAGACAAAUCUGCCACAAAGCUUGAGAGCAUUUUCGGAAGCAGAGGCGGAAGCCUUCGGUGGCGCGAUAGCGCUAUAGUUCUCAACUAUGACACGCAAAACGCGUGCUCCGUUGAAUGGCGUUUAUCAUG	≤ -4.2
GGAUCUUCUCGAUCUAACAAAAAAGACAAAUCUGCCACAAAGCUUGAGAGCAUUUUCGGAUGCAGAGGCGGCAGCCAUCGGUGUCGCUAUAGCGCCAACGUUCUCAACUAUGACACGCAAAACGCGUGCUCCGUUGAAUGGAGUUUAUCAUG	≤ -4.2
GGAUCUUCUCGAUCUAACAAAAAAGACAAAUCUGCCACAAAGCUUGAGAGCAUUUUCGGAUGCAGAGGCGGCAGCCUUCGGAGGCGCGAUAGCGCCAACGUUCUUAACUAUGACACGCGAAACGCGUGCUCCGUUGAAUGGAGUUUAUCAUG	0.194
GGAUCUUCUCGAUCUAACAAAAAAGACAAAUCUGCCACAAAGCUUGAGAGCAUUUUCGGAUGCAGAGGCGGCAGCCUUCGGAAGCGCGAUAGCGCCAGCGUUCUCAACUAUGACACGCAAAACGCGUGCUCCGUUGAAUGGAGUUUAUCAUG	-1.89
GGAUCUUCUCGAUCUAACAAAAAAGACAAAUCUGCCACAAAGCUUGAGAGCAUUUUCGGAUGCAGAGGCGGCAGCCUUCGGCGGCGCGAUAGCGACAACGUUCUCAACUAUGACACGCAAAACGCGUGCUCCGUUGAAUGUAGUUUAUCAUG	-2.99
